Assay results from publication PMC9911399, “Two distinct binding modes provide the RNA-binding protein RbFox with extraordinary sequence specificity”.
Where a chain is given by its changes, count along the chain named. Some of the results follow.

T1: RBFOX1 RRM (Homo sapiens, UniProt Q9NWB1 109-208)
T1 sequence: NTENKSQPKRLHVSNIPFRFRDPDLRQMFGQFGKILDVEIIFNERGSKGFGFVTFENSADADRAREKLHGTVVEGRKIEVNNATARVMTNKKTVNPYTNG

B1: CGGGAAC (DNA:RNA)
RNA: GGGAGACCGGAAUUCAGAUUGUCCCGGGAACUUAAAUCCCGUCGUAGCCACCA
DNA 1: CAATCTGAATTCCGGTCTCCC
DNA 2: TGGTGGCTACGACGGGATT
B2: GAGAGGG (DNA:RNA)
RNA: B1 RNA with C25G, G26A, G28A, A29G, A30G, C31G
DNA 1: CAATCTGAATTCCGGTCTCCC
DNA 2: TGGTGGCTACGACGGGATT
B3: UACGCUC (DNA:RNA)
RNA: B1 RNA with C25U, G26A, G27C, A29C, A30U
DNA 1: CAATCTGAATTCCGGTCTCCC
DNA 2: TGGTGGCTACGACGGGATT
B4: ACAUUCC (DNA:RNA)
RNA: B1 RNA with C25A, G26C, G27A, G28U, A29U, A30C
DNA 1: CAATCTGAATTCCGGTCTCCC
DNA 2: TGGTGGCTACGACGGGATT
B5: ACUGCUA (DNA:RNA)
RNA: B1 RNA with C25A, G26C, G27U, A29C, A30U, C31A
DNA 1: CAATCTGAATTCCGGTCTCCC
DNA 2: TGGTGGCTACGACGGGATT
B6: CUUAGUA (DNA:RNA)
RNA: B1 RNA with G26U, G27U, G28A, A29G, A30U, C31A
DNA 1: CAATCTGAATTCCGGTCTCCC
DNA 2: TGGTGGCTACGACGGGATT
B7: GACGCCG (DNA:RNA)
RNA: B1 RNA with C25G, G26A, G27C, A29C, A30C, C31G
DNA 1: CAATCTGAATTCCGGTCTCCC
DNA 2: TGGTGGCTACGACGGGATT
B8: AUCUUAG (DNA:RNA)
RNA: B1 RNA with C25A, G26U, G27C, G28U, A29U, C31G
DNA 1: CAATCTGAATTCCGGTCTCCC
DNA 2: TGGTGGCTACGACGGGATT
B9: CAUCCGU (DNA:RNA)
RNA: B1 RNA with G26A, G27U, G28C, A29C, A30G, C31U
DNA 1: CAATCTGAATTCCGGTCTCCC
DNA 2: TGGTGGCTACGACGGGATT
B10: AGUGUCU (DNA:RNA)
RNA: B1 RNA with C25A, G27U, A29U, A30C, C31U
DNA 1: CAATCTGAATTCCGGTCTCCC
DNA 2: TGGTGGCTACGACGGGATT
B11: AUUCGCU (DNA:RNA)
RNA: GGGAGACCGGAAUUCAGAUUGUCCAUUCGCUUUAAAUCCCGUCGUAGCCACCA
DNA 1: CAATCTGAATTCCGGTCTCCC
DNA 2: TGGTGGCTACGACGGGATT
B12: CUCAACG (DNA:RNA)
RNA: B11 RNA with A25C, U27C, C28A, G29A, U31G
DNA 1: CAATCTGAATTCCGGTCTCCC
DNA 2: TGGTGGCTACGACGGGATT
B13: CUUCGGG (DNA:RNA)
RNA: B11 RNA with A25C, C30G, U31G
DNA 1: CAATCTGAATTCCGGTCTCCC
DNA 2: TGGTGGCTACGACGGGATT
B14: GUUAGCA (DNA:RNA)
RNA: B11 RNA with A25G, C28A, U31A
DNA 1: CAATCTGAATTCCGGTCTCCC
DNA 2: TGGTGGCTACGACGGGATT
B15: GAAGUGA (DNA:RNA)
RNA: B1 RNA with C25G, G26A, G27A, A29U, A30G, C31A
DNA 1: CAATCTGAATTCCGGTCTCCC
DNA 2: TGGTGGCTACGACGGGATT
B16: CUCUUUG (DNA:RNA)
RNA: B11 RNA with A25C, U27C, C28U, G29U, C30U, U31G
DNA 1: CAATCTGAATTCCGGTCTCCC
DNA 2: TGGTGGCTACGACGGGATT
B17: GGCGGAU (DNA:RNA)
RNA: B1 RNA with C25G, G27C, A29G, C31U
DNA 1: CAATCTGAATTCCGGTCTCCC
DNA 2: TGGTGGCTACGACGGGATT
B18: GUCCCCG (DNA:RNA)
RNA: B11 RNA with A25G, U27C, G29C, U31G
DNA 1: CAATCTGAATTCCGGTCTCCC
DNA 2: TGGTGGCTACGACGGGATT
B19: CUUAGGA (DNA:RNA)
RNA: B11 RNA with A25C, C28A, C30G, U31A
DNA 1: CAATCTGAATTCCGGTCTCCC
DNA 2: TGGTGGCTACGACGGGATT
B20: GUCCCAU (DNA:RNA)
RNA: B11 RNA with A25G, U27C, G29C, C30A
DNA 1: CAATCTGAATTCCGGTCTCCC
DNA 2: TGGTGGCTACGACGGGATT

Each binder was assayed against T1, RBFOX1 RRM (assay: EMSA; HiTS-Eq, 1 nM pool, 10 min; buffer printed only for the single-RNA assays: 10 mM Tris pH 7.5, 150 mM NaCl, 3.4 mM EDTA, 0.001% NP-40, 30 C). Conditions: tags: His6 N-terminal (pET28a); label: 5' 32P.
Summary of the method: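 Relative association constants, normalised to the cognate motif, were derived by comparing read counts of each RNA species with those of the control reaction. The RNA sequenced was the free fraction, separated by 8% native PAGE after a 10 min equilibration in 50 µL of 1 nM 5′-radiolabelled RNA (7 randomized nucleotides) with increasing concentrations of purified wild-type or mutant RbFox RRM.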

Binder	binding signal
B1	0.0268 KA relative to UGCAUGU
B2	0.00714 KA relative to UGCAUGU
B3	0.00924 KA relative to UGCAUGU
B4	0.000104 KA relative to UGCAUGU
B5	0.00579 KA relative to UGCAUGU
B6	0.00453 KA relative to UGCAUGU
B7	0.0154 KA relative to UGCAUGU
B8	0.00706 KA relative to UGCAUGU
B9	0.000684 KA relative to UGCAUGU
B10	0.0109 KA relative to UGCAUGU
B11	0.00789 KA relative to UGCAUGU
B12	0.00406 KA relative to UGCAUGU
B13	0.00512 KA relative to UGCAUGU
B14	0.0176 KA relative to UGCAUGU
B15	0.0136 KA relative to UGCAUGU
B16	0.0134 KA relative to UGCAUGU
B17	0.0181 KA relative to UGCAUGU
B18	0.00848 KA relative to UGCAUGU
B19	0.00453 KA relative to UGCAUGU
B20	0.00286 KA relative to UGCAUGU
